From PubChem BioAssay AID686970 (National Center for Advancing Translational Sciences (NCATS), 2013)
Among all 360,000 compounds or so, about 6,000 (1.7%) were called active. The shares of active, inactive and inconclusive entries below differ from those in the screen. Calls come from the whole dose curve; as a rule, active = well fitted cell-killing curve with a large enough effect; inconclusive = small, poorly fitted or top-dose-only effect, or effect the other way; inactive = flat fitted curve, though single readings scatter. Potencies of inconclusive entries are left out as doubtful fits.

Experiment: qHTS for induction of synthetic lethality in tumor cells producing 2HG: qHTS for the HT-1080-NT fibrosarcoma cell line;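 note: NT is the 2HG producing partner of a matched IDH1 knockdown line; nearly all actives have a fitted effect of over 55% in size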;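 for activity, negative = less viability: 0% = DMSO-treated cells and -100% = media-only wells without cells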
Conditions: HT-1080-NT fibrosarcoma viability, CellTiter-Glo ATP luminescence, 48 h; activity, negative = less viability: at 46.1 µM (top of the series) unless noted
In short: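 HT-1080-NT fibrosarcoma cells (2HG-overproducing), 750 cells/well in RPMI with 5% FBS, dosed after 2 h and incubated 48 h at 37C. CellTiter-Glo luminescence normalized to DMSO and no-cell wells; concentration-response curves fitted and classed.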
Potency is the fitted concentration of half-maximal effect; tags give direction and shape of the fitted curve.

| SMILES | activity, negative = less viability | Potency |
| --- | --- | --- |
| CN(C)S(=O)(=O)c1ccc(NC(=O)COC(=O)C2CC3CCCC(C2)C3=O)cc1 (stereo not given) | inactive: -8.59% |  |
| COc1cc2c(oc(=O)c3cc(C)cc(OC)c32)c2c(C3OC(C)C(O)C(C)(O)C3O)ccc(O)c12 (stereo not given) |  | inconclusive [cytotoxic, single point] |
| Cc1cc(Cl)n2nc(C)c(-c3ccc(Cl)cc3)c2n1 |  | inconclusive [cytotoxic, single point] |
| Cc1ccc(S(=O)(=O)N2CCCCC2)cc1NC(=O)CNC(C)c1ccc(Cl)c(Cl)c1 (stereo not given) |  | inconclusive [cytotoxic, single point] |
| Cc1ccccc1-c1nc(NCCN(C)C)nc2ccsc12 |  | inconclusive [cytotoxic, single point] |
| CCN(CC)CCCNC(=O)c1cn(CC)c2ccc(S(=O)(=O)N(C)C3CCCCC3)cc2c1=O | inactive: -7.97% |  |
| COc1cccc(CN(C)C(=O)CCNC(=O)c2ccco2)c1 | inactive: 3.8% |  |
| CC(C)c1nc(N2CCN(C(=O)c3ccco3)CC2)c(C#N)c2c1COC(C)(C)C2 |  | inconclusive [cytotoxic, partial curve] |
| CC(=O)c1ncnn1CC(=O)c1ccc(Cl)cc1Cl |  | inconclusive [cytotoxic, single point] |
| O=C(CNC(=O)c1ccco1)OCC(=O)c1ccccc1Cl |  | inconclusive [rising, single point] |
| CCC(CO)Nc1nc2ccc(Cl)cc2c2ccccc12 (stereo not given) |  | inconclusive [cytotoxic, single point] |
| c1ccc(COc2ccc(-c3cc4nc(NCCN5CCOCC5)ccn4n3)cc2)cc1 |  | inconclusive [cytotoxic, single point] |
| C=CCn1c(SCc2ccc(C(=O)NCCO)cc2)nc2sc(C)c(C)c2c1=O |  | inconclusive [cytotoxic, partial curve] |
| COc1cc(C(F)(F)F)ccc1C(=O)NCCc1ccco1 | inconclusive: 23.9% |  |
| COC(=O)[C@@]1(Cc2ccc(F)cc2)[C@H]2c3cc(C(=O)N4CCCC4)n(CCF)c3C[C@H]2CN1C(=O)c1ccccc1 |  | inconclusive [cytotoxic, single point] |
| N#Cc1cccc(Nc2c3c(nc4ccccc24)CCCC3)c1 |  | inconclusive [cytotoxic, single point] |
| Cc1ccc2nc(-c3ccc(Cl)cc3)c(CC3CCCCC3)n2c1 |  | inconclusive [cytotoxic, single point] |
| CCC(C)[C@H](NC(=O)OC(C)(C)C)C(=O)N/N=C/c1cccc2nccnc12 (stereo not given in full) |  | inconclusive [cytotoxic, single point] |

| SMILES | activity, negative = less viability | Potency |
| --- | --- | --- |
| CCOc1ccc(C(=O)CN2C(=O)NC3(CCCc4ccccc43)C2=O)cc1 (stereo not given) | inactive: 1.45% |  |
| Cc1cccc(Nc2nc(CC(=O)O)cs2)c1 |  | inconclusive [rising, partial curve] |
| CCNC(=O)C1CCCN(C(=O)c2ccc(N(C)C)cc2)CC1 (stereo not given) |  | inconclusive [rising, single point] |
| CCOc1ccc(NCc2cc3c(C(C)(C)C)nn(-c4ccccc4)c3[nH]c2=O)cc1 |  | inconclusive [cytotoxic, single point] |
| O=C(C1CCCCC1)N(Cc1nc2sc3c(c2c(=O)[nH]1)CCCC3)Cc1cccs1 |  | inconclusive [cytotoxic, single point] |
| O=c1cc(CCl)nc(Cc2c(Cl)cccc2Cl)[nH]1 |  | active: 23.1 µM |
| Clc1ccc2c(N3CCCC3)ccnc2c1 | inactive: -21.5% |  |
| CNC(=O)C1CC(=O)N(c2ccc(OCC(=O)NCc3ccccc3)cc2)C1 (stereo not given) | inactive: 6.96% |  |
| CCOc1ccc(OCC)c(S(=O)(=O)NCc2ccc3c(c2)OCO3)c1 | inactive: -1.13% |  |
| CC(Oc1ccc(Cl)cc1Cl)C(=O)Nc1ccc(N2CCN(C)CC2)cc1 (stereo not given) |  | inconclusive [cytotoxic, single point] |
| Cc1ccc2nc(-c3ccc(SCC(=O)Nc4nnc(C)s4)nc3)[nH]c2c1 |  | active: 20.6 µM |
| CCCCCCCCN1C(=O)[C@H](CC(=O)NCCCN2CCCC2=O)C[C@@]2(C(=O)OC)CCCCC=C12 | inactive: -7.22% |  |
| O=C(Cc1ccc(Cl)cc1)Nc1ccccc1CO | inactive: 11.9% |  |
| Cc1cc(C)n(-c2nc3ccccc3nc2N2CCC(C)CC2)n1 | inactive: -1.25% |  |
| COc1ccc(C)cc1-n1nnnc1SCc1nc2ccccc2c(=O)[nH]1 |  | active: 14.6 µM |
| COc1ccc2nc3n(c(=O)c2c1)-c1ncccc1C(=O)NC3C (stereo not given) | inactive: 15.5% |  |
| CC(C)(C)c1ccc(C(=O)N2CCC2(C)C(=O)Nc2cccc3ncccc23)cc1 (stereo not given) | inactive: -6.66% |  |
